Source: article PMC9911399, “Two distinct binding modes provide the RNA-binding protein RbFox with extraordinary sequence specificity”
Positions count from the first letter of the chain named. The list shows a part of the results.

T1: RBFOX1 RRM (Homo sapiens, UniProt Q9NWB1 109-208)
T1 sequence: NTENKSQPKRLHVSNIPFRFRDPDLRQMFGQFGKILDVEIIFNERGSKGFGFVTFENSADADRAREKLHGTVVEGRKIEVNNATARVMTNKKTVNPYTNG

B1: CGUGAAU (DNA:RNA)
RNA: GGGAGACCGGAAUUCAGAUUGUCCCGUGAAUUUAAAUCCCGUCGUAGCCACCA
DNA 1: CAATCTGAATTCCGGTCTCCC
DNA 2: TGGTGGCTACGACGGGATT
B2: UGGGCGC (DNA:RNA)
RNA: B1 RNA with C25U, U27G, A29C, A30G, U31C
DNA 1: CAATCTGAATTCCGGTCTCCC
DNA 2: TGGTGGCTACGACGGGATT
B3: GAGAAGU (DNA:RNA)
RNA: B1 RNA with C25G, G26A, U27G, G28A, A30G
DNA 1: CAATCTGAATTCCGGTCTCCC
DNA 2: TGGTGGCTACGACGGGATT
B4: ACGGCGA (DNA:RNA)
RNA: B1 RNA with C25A, G26C, U27G, A29C, A30G, U31A
DNA 1: CAATCTGAATTCCGGTCTCCC
DNA 2: TGGTGGCTACGACGGGATT
B5: GAUUAAG (DNA:RNA)
RNA: B1 RNA with C25G, G26A, G28U, U31G
DNA 1: CAATCTGAATTCCGGTCTCCC
DNA 2: TGGTGGCTACGACGGGATT
B6: UUUUUAA (DNA:RNA)
RNA: B1 RNA with C25U, G26U, G28U, A29U, U31A
DNA 1: CAATCTGAATTCCGGTCTCCC
DNA 2: TGGTGGCTACGACGGGATT
B7: AGUAUCU (DNA:RNA)
RNA: B1 RNA with C25A, G28A, A29U, A30C
DNA 1: CAATCTGAATTCCGGTCTCCC
DNA 2: TGGTGGCTACGACGGGATT
B8: GCACUGC (DNA:RNA)
RNA: GGGAGACCGGAAUUCAGAUUGUCCGCACUGCUUAAAUCCCGUCGUAGCCACCA
DNA 1: CAATCTGAATTCCGGTCTCCC
DNA 2: TGGTGGCTACGACGGGATT
B9: CUGUUUC (DNA:RNA)
RNA: B8 RNA with G25C, C26U, A27G, C28U, G30U
DNA 1: CAATCTGAATTCCGGTCTCCC
DNA 2: TGGTGGCTACGACGGGATT
B10: UAAUCCU (DNA:RNA)
RNA: B1 RNA with C25U, G26A, U27A, G28U, A29C, A30C
DNA 1: CAATCTGAATTCCGGTCTCCC
DNA 2: TGGTGGCTACGACGGGATT
B11: AGCUUGA (DNA:RNA)
RNA: B8 RNA with G25A, C26G, A27C, C28U, C31A
DNA 1: CAATCTGAATTCCGGTCTCCC
DNA 2: TGGTGGCTACGACGGGATT
B12: CGGUGGU (DNA:RNA)
RNA: B1 RNA with U27G, G28U, A29G, A30G
DNA 1: CAATCTGAATTCCGGTCTCCC
DNA 2: TGGTGGCTACGACGGGATT
B13: UGUUCCC (DNA:RNA)
RNA: B1 RNA with C25U, G28U, A29C, A30C, U31C
DNA 1: CAATCTGAATTCCGGTCTCCC
DNA 2: TGGTGGCTACGACGGGATT
B14: GUGAUUU (DNA:RNA)
RNA: B8 RNA with C26U, A27G, C28A, G30U, C31U
DNA 1: CAATCTGAATTCCGGTCTCCC
DNA 2: TGGTGGCTACGACGGGATT
B15: CCACCAG (DNA:RNA)
RNA: B8 RNA with G25C, U29C, G30A, C31G
DNA 1: CAATCTGAATTCCGGTCTCCC
DNA 2: TGGTGGCTACGACGGGATT
B16: AAGCCUG (DNA:RNA)
RNA: B8 RNA with G25A, C26A, A27G, U29C, G30U, C31G
DNA 1: CAATCTGAATTCCGGTCTCCC
DNA 2: TGGTGGCTACGACGGGATT
B17: UUGGUCG (DNA:RNA)
RNA: B1 RNA with C25U, G26U, U27G, A29U, A30C, U31G
DNA 1: CAATCTGAATTCCGGTCTCCC
DNA 2: TGGTGGCTACGACGGGATT
B18: AAUUGUA (DNA:RNA)
RNA: B1 RNA with C25A, G26A, G28U, A29G, A30U, U31A
DNA 1: CAATCTGAATTCCGGTCTCCC
DNA 2: TGGTGGCTACGACGGGATT
B19: UUUGUCU (DNA:RNA)
RNA: B1 RNA with C25U, G26U, A29U, A30C
DNA 1: CAATCTGAATTCCGGTCTCCC
DNA 2: TGGTGGCTACGACGGGATT
B20: CCAUUAU (DNA:RNA)
RNA: B1 RNA with G26C, U27A, G28U, A29U
DNA 1: CAATCTGAATTCCGGTCTCCC
DNA 2: TGGTGGCTACGACGGGATT
B21: GACCCCU (DNA:RNA)
RNA: B8 RNA with C26A, A27C, U29C, G30C, C31U
DNA 1: CAATCTGAATTCCGGTCTCCC
DNA 2: TGGTGGCTACGACGGGATT
B22: CUCGCAG (DNA:RNA)
RNA: B1 RNA with G26U, U27C, A29C, U31G
DNA 1: CAATCTGAATTCCGGTCTCCC
DNA 2: TGGTGGCTACGACGGGATT
B23: AGGACCA (DNA:RNA)
RNA: B1 RNA with C25A, U27G, G28A, A29C, A30C, U31A
DNA 1: CAATCTGAATTCCGGTCTCCC
DNA 2: TGGTGGCTACGACGGGATT
B24: CCAGGCC (DNA:RNA)
RNA: B8 RNA with G25C, C28G, U29G, G30C
DNA 1: CAATCTGAATTCCGGTCTCCC
DNA 2: TGGTGGCTACGACGGGATT
B25: GCAUUGG (DNA:RNA)
RNA: B8 RNA with C28U, C31G
DNA 1: CAATCTGAATTCCGGTCTCCC
DNA 2: TGGTGGCTACGACGGGATT
B26: AGGCGGU (DNA:RNA)
RNA: B1 RNA with C25A, U27G, G28C, A29G, A30G
DNA 1: CAATCTGAATTCCGGTCTCCC
DNA 2: TGGTGGCTACGACGGGATT
B27: CCUAUCC (DNA:RNA)
RNA: B8 RNA with G25C, A27U, C28A, G30C
DNA 1: CAATCTGAATTCCGGTCTCCC
DNA 2: TGGTGGCTACGACGGGATT
B28: GUUGAGG (DNA:RNA)
RNA: B1 RNA with C25G, G26U, A30G, U31G
DNA 1: CAATCTGAATTCCGGTCTCCC
DNA 2: TGGTGGCTACGACGGGATT
B29: UUGCUUU (DNA:RNA)
RNA: B8 RNA with G25U, C26U, A27G, G30U, C31U
DNA 1: CAATCTGAATTCCGGTCTCCC
DNA 2: TGGTGGCTACGACGGGATT
B30: GAAUAGG (DNA:RNA)
RNA: B8 RNA with C26A, C28U, U29A, C31G
DNA 1: CAATCTGAATTCCGGTCTCCC
DNA 2: TGGTGGCTACGACGGGATT
B31: ACGUAAU (DNA:RNA)
RNA: B1 RNA with C25A, G26C, U27G, G28U
DNA 1: CAATCTGAATTCCGGTCTCCC
DNA 2: TGGTGGCTACGACGGGATT

Biological target: T1, RBFOX1 RRM
Experiment: EMSA; HiTS-Eq, 1 nM pool, 10 min; buffer printed only for the single-RNA assays: 10 mM Tris pH 7.5, 150 mM NaCl, 3.4 mM EDTA, 0.001% NP-40, 30 C
Conditions: tags: His6 N-terminal (pET28a); label: 5' 32P
Method in brief: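 Purified RbFox RRM, wild type or mutant, was incubated for 10 min in 50 µL with 1 nM of a 5′-radiolabelled RNA pool carrying 7 randomized nucleotides, whose flanks were annealed to DNA oligonucleotides, over a series of increasing protein concentrations. Unbound RNA was resolved on 8% native PAGE, cut out, reverse-transcribed, barcoded by PCR and sequenced on an Illumina HiSeq 2500. Relative association constants were derived from changes in read counts for each RNA species versus the control reaction and normalised to the cognate motif.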

Binder	binding signal
B1	0.00862 KA relative to UGCAUGU
B2	0.0335 KA relative to UGCAUGU
B3	0.0151 KA relative to UGCAUGU
B4	0.0123 KA relative to UGCAUGU
B5	0.00955 KA relative to UGCAUGU
B6	0.00784 KA relative to UGCAUGU
B7	0.00723 KA relative to UGCAUGU
B8	0.018 KA relative to UGCAUGU
B9	0.0146 KA relative to UGCAUGU
B10	0.00283 KA relative to UGCAUGU
B11	0.0217 KA relative to UGCAUGU
B12	0.0161 KA relative to UGCAUGU
B13	0.0148 KA relative to UGCAUGU
B14	0.0182 KA relative to UGCAUGU
B15	0.00235 KA relative to UGCAUGU
B16	0.0167 KA relative to UGCAUGU

Binder	binding signal
B17	0.0376 KA relative to UGCAUGU
B18	0.0068 KA relative to UGCAUGU
B19	0.0178 KA relative to UGCAUGU
B20	0.00134 KA relative to UGCAUGU
B21	0.0029 KA relative to UGCAUGU
B22	0.0115 KA relative to UGCAUGU
B23	0.0117 KA relative to UGCAUGU
B24	0.0113 KA relative to UGCAUGU
B25	0.0185 KA relative to UGCAUGU
B26	0.0148 KA relative to UGCAUGU
B27	0.00783 KA relative to UGCAUGU
B28	0.0122 KA relative to UGCAUGU
B29	0.0232 KA relative to UGCAUGU
B30	0.00781 KA relative to UGCAUGU
B31	0.00194 KA relative to UGCAUGU
